Article PMC4336329 (PLoS ONE, 2015)
Out of some 310,000 compounds screened, about 2,200 (0.71%) showed an effect of 50% or more. Effects have a minus sign here. This is one part of the list.

molecular target: human ether-à-go-go-related gene (hERG) potassium channel (human, UniProt Q12809); test: primary screen, population patch clamp on CHO cells stably expressing hERG
Sequence (Q12809 whole entry, looked up): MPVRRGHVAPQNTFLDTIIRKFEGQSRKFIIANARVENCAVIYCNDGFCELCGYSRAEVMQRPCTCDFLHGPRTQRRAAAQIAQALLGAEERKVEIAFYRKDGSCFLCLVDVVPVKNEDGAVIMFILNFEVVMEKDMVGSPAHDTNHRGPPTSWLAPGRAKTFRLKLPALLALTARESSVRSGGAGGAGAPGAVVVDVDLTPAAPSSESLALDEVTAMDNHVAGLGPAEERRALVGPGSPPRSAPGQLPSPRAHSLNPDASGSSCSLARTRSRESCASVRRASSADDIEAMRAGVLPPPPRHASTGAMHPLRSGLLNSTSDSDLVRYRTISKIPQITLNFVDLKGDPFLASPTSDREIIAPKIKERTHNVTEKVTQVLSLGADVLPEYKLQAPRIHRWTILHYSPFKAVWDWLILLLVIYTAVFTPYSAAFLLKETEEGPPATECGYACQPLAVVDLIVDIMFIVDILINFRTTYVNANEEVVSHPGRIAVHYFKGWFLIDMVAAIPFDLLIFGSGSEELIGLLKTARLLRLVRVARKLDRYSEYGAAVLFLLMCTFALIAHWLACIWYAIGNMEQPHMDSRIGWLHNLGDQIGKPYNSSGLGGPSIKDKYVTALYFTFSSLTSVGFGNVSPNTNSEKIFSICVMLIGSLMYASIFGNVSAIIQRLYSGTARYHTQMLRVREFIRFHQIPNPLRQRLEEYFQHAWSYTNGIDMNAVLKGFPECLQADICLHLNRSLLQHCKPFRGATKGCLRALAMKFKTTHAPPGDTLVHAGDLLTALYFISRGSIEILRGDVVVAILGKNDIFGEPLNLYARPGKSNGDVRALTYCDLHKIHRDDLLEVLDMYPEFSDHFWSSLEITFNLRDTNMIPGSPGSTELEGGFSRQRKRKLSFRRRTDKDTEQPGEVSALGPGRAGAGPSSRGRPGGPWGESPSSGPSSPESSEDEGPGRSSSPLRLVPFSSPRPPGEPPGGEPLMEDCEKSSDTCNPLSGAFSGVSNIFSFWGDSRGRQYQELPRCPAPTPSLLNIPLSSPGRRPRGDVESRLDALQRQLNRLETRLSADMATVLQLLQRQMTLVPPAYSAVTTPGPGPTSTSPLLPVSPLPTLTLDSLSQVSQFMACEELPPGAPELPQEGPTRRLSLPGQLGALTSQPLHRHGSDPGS

Structure (SMILES) | hERG current change (%, negative = inhibition) at 1uM
COc1ccccc1N(C)S(=O)(=O)c1ccc(Cl)c(C(=O)NCCCN2CCOCC2)c1 | 9.43%
Cc1ccc(-c2csc(-c3cc(C)on3)n2)cc1 | 21.4%
Cc1nnc(NC(=O)C2CCN(c3cnccn3)CC2)s1 | 6.88%
Cc1c(C(=O)N2CCOCC2)sc2ncn(CC(=O)N3CCC(C)CC3)c(=O)c12 | 2.81%
CC(=O)Nc1ccc(-c2cc(-c3ccc(NC(C)=O)cc3)nc(-c3ccccc3)n2)cc1 | 5.67%
CCCCNCc1cc(OCC)c(OCC)cc1Br.Cl | 17%
COc1ccc(C(=O)Nc2cccc(C(=O)N3CCCCC3)c2)cc1 | 13.9%
O=C(c1cccc2ccccc12)N1CCN(c2ccccc2F)CC1 | 6.94%
O=C(CN1CCCC1)Nc1ccc([N+](=O)[O-])cc1 | -7.9%
O=C1OCc2cccc([N+](=O)[O-])c21 | 12.8%
COC(=O)c1ccc(-n2c(C)cc(C(=O)COC(=O)CNS(=O)(=O)c3ccc(C)cc3)c2C)cc1 | 3.35%
COc1ccc(C(=O)NC(=S)Nc2ccc3c(c2)Cc2ccccc2-3)cc1 | 16.8%
Cc1ccc(C(=O)Nc2ccc3c(c2)OCO3)cc1Cl | 16.6%
CC(Sc1nc2ccccc2s1)C(=O)c1c(N)n(C)c(=O)n(C)c1=O (stereo not drawn) | 16.8%
COc1ccc(N2C(=O)c3ccccc3NC2c2ccc(OC)c(Cn3cc([N+](=O)[O-])cn3)c2)cc1 (stereo not drawn) | 6.5%
COc1nc(NCc2cccnc2)nc(OC)n1 | 11%
COc1cc(CC(=O)Nc2cccc(C(F)(F)F)c2)cc(OC)c1OC | 4.11%
Cl.O=C(c1ccccc1)C(CCC(CN1CCOCC1)C(=O)c1ccccc1)CN1CCOCC1 (stereo not drawn) | 3.47%
CCCCc1ccc(NC(=O)Nc2cc(C)nn2C)cc1 | 16.1%
CC(=O)NCCc1nc2ccccc2n1CCOc1ccccc1C | 7.65%
O=C(OCc1ccccc1F)c1ccc2c(c1)-c1ccccc1C2=O | 8.02%
O=c1c2cc(N3CCOCC3)ccc2[nH]c(=S)n1Cc1ccco1 | -0.262%

Structure (SMILES) | hERG current change (%, negative = inhibition) at 1uM
Cc1c(CNC(=O)C2CC2)c(-n2cccc2)n(Cc2ccccc2)c1C | 24.6%
COc1ccc2nc(SCC(=O)N(C)CC(=O)Nc3ccc(F)cc3)[nH]c2c1 | 2.15%
COc1cc(-c2nc3n(n2)C(c2cccc(OC)c2OC)C2=C(CCCC2=O)N3)cc(OC)c1OC (stereo not drawn) | -11%
CCCCn1c(NS(=O)(=O)c2ccccc2)c(S(=O)(=O)c2ccc(C)cc2)c2nc3ccccc3nc21 | 4.02%
Cc1ccc(C)c(CN2C(=O)CSc3ccc(C(=O)N4CCCC4)cc32)c1 | 5.65%
COc1cc(CCC(=O)OCC(=O)Nc2ccccc2F)cc(OC)c1OC | 21.2%
O=C(NCC(=O)N(c1cccnc1)C(C(=O)NC1CCCC1)c1ccccc1F)c1ccco1 (stereo not drawn) | 6.92%
Cc1cc(C(F)F)n2nc(C(=O)Nc3cccc(S(=O)(=O)N4CCOCC4)c3)nc2n1 | 7.14%
c1ccc(-c2nccc(-c3ccc(-n4cnc5ccccc54)cc3)n2)nc1 | -15.5%
Clc1ccccc1/C=C/C=N/Nc1nc(N2CCOCC2)nc(N2CCOCC2)n1 | -4.27%
CCCn1nc(NS(C)(=O)=O)c2cc3cccc(C)c3nc21 | 3.57%
Cl.NC(=NC1CCCCC1)c1ccc([N+](=O)[O-])cc1 | -33%
CCN(Cc1ccncc1)C(=O)c1ccc(Br)o1 | 5.46%
Cc1ccc(C)c2[nH]c(=O)c(CN(CC3CCCO3)S(=O)(=O)c3ccc4c(c3)OCCO4)cc12 (stereo not drawn) | 11.2%
O=C(COC(=O)CNC(=O)c1ccc(Cl)cc1)NC1CCCCCC1 | 17.4%
O=C(C1CCN(S(=O)(=O)c2ccc(F)cc2)CC1)N1CC=C(c2ccccc2)CC1 | 0.691%
CC1CCN(C(=O)C2CCCN(S(=O)(=O)c3cccc4nsnc34)C2)CC1 (stereo not drawn) | 7.06%
CN(C)S(=O)(=O)n1cc(/C=C(\NC(=O)c2ccccc2)C(=O)NCCCN2CCOCC2)c2ccccc21 | 14.2%
CCOC(=O)[C@@H]1[C@H]2COc3ccc(Br)cc3[C@@H]2N2C(=O)N(c3cccc(Cl)c3)C(=O)[C@]12C | 13.8%
COc1ccc(S(=O)(=O)N2CCCCC2)cc1NC(=O)Cc1sc(C)nc1-c1ccc(F)cc1 | 3.12%
N#CCCn1c(SCC(=O)NCCc2ccc(F)cc2)nc2ccccc21 | -10.8%
CC(Cc1ccccc1)NC(=O)CC(c1ccccc1)c1ccccc1O (stereo not drawn) | 13.1%

Structure (SMILES) | hERG current change (%, negative = inhibition) at 1uM
Cc1ccc(SCC(=O)OC(C)C(=O)NC2(C#N)CCCCC2)cc1 (stereo not drawn) | 11.5%
COc1ccc(CN2CCNC(=O)C2CC(=O)NCc2cnn(C)c2)cc1OC (stereo not drawn) | 4.85%
CCCOC(=O)c1cc(NC(=O)/C=C/c2ccccc2)ccc1O | 12.6%
COc1ccc(CNC(=O)CSc2nnc(C)c(=O)[nH]2)cc1 | 2.84%
Cc1cc(C(=O)Nc2ccccc2C(=O)O)ccc1NC(=O)COc1ccccc1Cl | 3.04%
O=C(COC(=O)c1ccccn1)Nc1nc(-c2ccccc2)cs1 | 18.8%
CCOc1ccc(C(=O)NCC(c2ccco2)N2CCc3ccccc3C2)cc1 (stereo not drawn) | -7.04%
O=C(Nn1c(-c2ccccc2)nc2ccccc2c1=O)c1ccc([N+](=O)[O-])cc1 | 13.2%
CC1CCCCC1NC(=O)CO/N=C/c1ccccc1OC(F)F (stereo not drawn) | -7.44%
COc1cc(/C=N\NC(=O)c2ccc(C)nc2)ccc1OC(=O)c1ccc2c(c1)OCO2 | 10.9%
CC(=O)Nc1ccc(NC(=O)C(C)OC(=O)CC2CCCCC2)cc1 (stereo not drawn) | 17.3%
Cc1ccc(-c2cnc(-c3ccncc3)o2)cc1 | -14.5%
CCN(Cc1cnn(C)c1)Cc1nc(C(c2ccccc2)c2ccccc2)no1 | 4.82%
CCN(CC)C1=N/C(=C\c2ccc(OC)cc2)C(=O)N1c1ccccc1 | 3.33%
CCOc1ccc(Cl)cc1C1=CC(=O)C[C@H](c2ccc(OC)cc2)C1 | -0.284%
Cc1cc(N2CCC(C(=O)Nc3ccc(F)cc3)CC2)nc(-c2ccccc2)n1 | 5.59%
COC(=O)CNc1c(-c2ccccc2)nc2ccc(Br)cn12 | -6.27%
COC(=O)c1cccc(Cn2nnc3ccccc3c2=O)c1 | -2.79%
COc1ccc(C2c3c(oc4ccccc4c3=O)C(=O)N2CCN2CCOCC2)cc1OC (stereo not drawn) | 9.36%
CN(CC(O)COc1ccccc1F)C1CCCCC1.Cl (stereo not drawn) | 10.8%
CC(C)(CNc1ccc([N+](=O)[O-])cc1C#N)N1CCOCC1 | 0.218%
Cn1c(=O)c2c(nc(SCc3ccc(F)cc3)n2C)n(C)c1=O | 10.2%

Structure (SMILES) | hERG current change (%, negative = inhibition) at 1uM
O=C(NCCCCc1ccccc1)c1ccc(Br)o1 | -0.674%
COc1ccc(CCN2CC(C(=O)NCc3nc(C)c(C)s3)CCC2=O)cc1 (stereo not drawn) | -14.4%
Cc1nc2ccccc2nc1OCC(=O)N1CCN(c2ccccc2)CC1 | 5.88%
COc1ccc(CNC(=O)C(C)OC(=O)c2cccn2C)cc1 (stereo not drawn) | 0.715%
CCN(CC(=O)NCc1cccs1)C(=O)COc1ccc(C(N)=O)cc1 | 6.77%
COc1ccc(NC(=O)C(=O)N/N=C/c2cccnc2)c(OC)c1 | 19.6%
Cc1ccc(Cl)cc1NC(=O)C1CCCN(S(C)(=O)=O)C1 (stereo not drawn) | 7.81%
O=C(CSc1nncn1-c1cccnc1)Nc1cccc(C(F)(F)F)c1 | -3.57%
COC(=O)/C(=N/Nc1ccccc1)N1CCCc2ccccc21 | 12.9%
COc1ccc(-c2cc(C(=O)O)c3ccccc3n2)c(OC)c1 | 12.2%
Cc1cccc(NC(=O)CSc2nnc(-c3ccc(S(=O)(=O)N4CCCC4)cc3)o2)c1 | 4.78%
Cc1cc(C(=O)OCC(=O)NC2CCC(C)CC2)c(C)o1 (stereo not drawn) | 10.4%
C=CCn1c(CNC(=O)c2ccco2)nnc1SCC(=O)Nc1cccc(F)c1 | -4.82%
Cn1c(=O)cc(N2CCN(C(=O)c3ccco3)CC2)[nH]c1=O | 7.66%
O=C(COC(=O)COc1ccccc1)Nc1ccccc1OC(F)F | -2.95%
Cc1ccc(S(=O)(=O)NCC(=O)OCC(=O)NCc2cccs2)cc1 | 9.63%
O=C(ON=C1CCN(S(=O)(=O)c2ccccc2)CC1)c1ccccc1 | 10.6%
CCOC(=O)C1CCN(S(=O)(=O)c2ccc(NC(=O)c3ccco3)cc2)CC1 | 2.95%
CCCNc1ncnc2sc(C)c(C)c12 | 9.55%
Cc1nn(-c2ccccc2)c(C)c1C(=O)OCC(=O)NCc1ccco1 | 8.85%
COC(=O)[C@@H](NC(=O)NCc1cccs1)C(C)C | -3.55%
